For 40 compounds, cytotoxicity call results are on record in the antibiotic and cytotoxicity screens of Wong et al. (2023).

The list shows a part of the results.

The test has as its system HepG2. The test is described as follows: cytotoxicity call (relative viability < 0.9). As to conditions: 10 µM.
As to `Cc1noc(C)c1NC(=O)Nc1ccc2c(c1)C(=O)N([C@@H](C)CO)C[C@@H](C)[C@H](CN(C)C(=O)NC1CCCCC1)OCCCC[C@H](C)O2`, the cytotoxicity call is “inactive”.

As for `C[C@@H]1CCCCO[C@H](CN(C)S(=O)(=O)c2ccc(F)cc2)[C@@H](C)CN([C@H](C)CO)C(=O)c2cc(NC(=O)Cc3ccccc3)ccc2O1`, the cytotoxicity call was “active”. On to `C[C@@H]1CN([C@H](C)CO)C(=O)c2cccc(NC(=O)CCCCCC(=O)Nc3ccccc3N)c2O[C@H]1CN(C)C(=O)Nc1ccc(F)cc1`, for which the cytotoxicity call was “inactive”. As for `Nc1ncnc2c1ncn2C1OC(COP(=O)(O)O)C(O)C1O` (stereo not given), the entry is “inactive”. For the compound `C[C@@H](CO)N1CC[C@H](CN(C)Cc2ccc(Oc3ccccc3)cc2)Oc2c(NC(=O)c3ccncc3)cccc2C1=O`, the cytotoxicity call is “inactive”. As to `O=C(C[C@@H]1CC[C@H]2[C@@H](COC[C@H](O)CN2Cc2cc(F)ccc2F)O1)N[C@H]1CCN(Cc2ccccc2)C1`, the cytotoxicity call is “inactive”.

With `COc1ccc([C@@H]([C@H](Cc2ccccc2)OC(C)=O)N2C[C@@H](CC(=O)N(C)C)[C@H]3[C@@H]([C@@H]2Cc2ccccc2)N(C)O[C@@H]3c2ccccc2)cc1`, the cytotoxicity call is “active”. Take `C[C@@H]1CN([C@@H](C)CO)C(=O)Cc2cc(NS(=O)(=O)c3ccc(F)cc3)ccc2O[C@@H]1CN(C)Cc1ccc(-c2ccccc2)cc1`: the cytotoxicity call was “active”. As for `CN(C)N(C)C(=O)[C@@]1(Cc2ccccc2)CCCN(C(=O)[C@@H](Cc2c[nH]c3ccccc23)NC(=O)C(C)(C)N)C1`, the entry is “inactive”; as for `CC1CN(c2c(F)c(F)c3c(=O)c(C(=O)O)cn(C4CC4)c3c2F)CC(C)N1` (stereo not given), “inactive”; as for `COc1ccc(CN2C[C@@H](C)[C@H](OC)CN(C)C(=O)c3cc(NC(=O)c4nc5ccccc5s4)ccc3OC[C@H]2C)cc1`, “inactive”. The same measure for `C[C@H]1CCCCO[C@H](CN(C)C(=O)Nc2ccc(C(F)(F)F)cc2)[C@@H](C)CN([C@@H](C)CO)C(=O)c2cc(NC(=O)c3ccncc3)ccc2O1`: “inactive”; for `COc1ccccc1S(=O)(=O)N[C@H]1CC[C@H](CCNC(=O)C2CC2)O[C@H]1CO`: “inactive”; for `COc1ccc(/C=C/CN(C/C=C/c2ccc(OC)cc2)CCCNS(=O)(=O)c2cccc3cnccc23)cc1`: “inactive”. As for `C[C@@H]1CN([C@H](C)CO)C(=O)c2cccc(NC(=O)c3ccc(-c4nccs4)cc3)c2O[C@H]1CN(C)Cc1ccc2c(c1)OCO2`, the cytotoxicity call was “inactive”. Turning to `C[C@@H]1CCCCO[C@@H](CN(C)S(=O)(=O)c2cccs2)[C@@H](C)CN([C@@H](C)CO)C(=O)c2cc(NS(C)(=O)=O)ccc2O1`, the cytotoxicity call is “inactive”. The same measure for `Cc1ccc(S(=O)(=O)N(C)C[C@@H]2OCCCC[C@@H](C)Oc3ccc(NS(=O)(=O)c4ccc(Cl)cc4)cc3C(=O)N([C@H](C)CO)C[C@@H]2C)cc1`: “inactive”; for `C[C@@H]1CN([C@H](C)CO)C(=O)CCCn2nncc2CO[C@@H]1CN(C)S(=O)(=O)c1ccccc1C#N`: “inactive”; for `CN1C(=O)c2cc(NC(=O)c3ccc(F)c(F)c3)ccc2OC[C@@H]2O[C@H](CC(=O)N3CCOCC3)CC[C@@H]21`: “inactive”. Regarding `C[C@@H]1CN([C@H](C)CO)C(=O)c2cc(NC(=O)Nc3cccc4ccccc34)ccc2O[C@@H](C)CCCCO[C@H]1CN(C)Cc1ccc(C(F)(F)F)cc1`, the cytotoxicity call is “inactive”. The same measure for `C[C@H](CO)N1C[C@H](C)[C@@H](CN(C)Cc2ccccc2)Oc2c(NC(=O)c3cnccn3)cccc2C1=O`: “inactive”. `COc1ccc(NC(=O)Nc2cccc3c2O[C@@H](CN(C)S(=O)(=O)c2cn(C)cn2)[C@@H](C)CN([C@H](C)CO)C3=O)cc1`: the cytotoxicity call was “inactive”. The same measure for `CN(C)CCN1C[C@H]2OCCN(Cc3cnn(C)c3)[C@H]2C1`: “inactive”; for `Cc1noc(C)c1NC(=O)N(C)C[C@H]1OCCCC[C@@H](C)Oc2ccc(NC(=O)c3ccccc3)cc2C(=O)N([C@@H](C)CO)C[C@H]1C`: “inactive”.

In the case of `COc1ccc2c3c([nH]c2c1)[C@@H](CO)N(C[C@]13CCN(CC1)C(=O)Nc1c(noc1C)C)C(=O)Nc1ccc(cc1)F`, the cytotoxicity call is “inactive”.

As to `C[C@H]1CCCCO[C@@H](CN(C)Cc2ccc3c(c2)OCO3)[C@@H](C)CN([C@@H](C)CO)C(=O)c2cc(NS(=O)(=O)c3cccs3)ccc2O1`, the cytotoxicity call is “inactive”. As to `CS(=O)(=O)OCCCCOS(C)(=O)=O`, the cytotoxicity call is “inactive”. As for `C[C@@H]1CCCCO[C@H](CN(C)C(=O)CCCN(C)C)[C@H](C)CN([C@H](C)CO)C(=O)c2cc(N(C)C)ccc2O1`, the entry is “inactive”. As for `CC(C)NC(=O)Nc1ccc2c(c1)C(=O)N([C@@H](C)CO)C[C@H](C)[C@@H](CN(C)Cc1ccc(-c3ccccc3)cc1)O2`, the entry is “inactive”; as for `O=C(C[C@H]1CC[C@H]2[C@@H](COC[C@@H](O)CN2C(=O)c2ccc(F)cc2)O1)NCCCN1CCOCC1`, “inactive”. Consider `Cc1noc(C)c1S(=O)(=O)N(C)C[C@@H]1Oc2ccc(NS(=O)(=O)c3ccc(F)cc3)cc2CC(=O)N([C@@H](C)CO)C[C@@H]1C`, for which the cytotoxicity call is “inactive”. For the compound `Cc1cnc(N)c(C)n1`, the cytotoxicity call is “inactive”. As for `COCC#Cc1cnc2c(c1)C(=O)N([C@H](C)CO)C[C@@H](C)[C@H](CN(C)S(=O)(=O)c1cn(C)cn1)O2`, the cytotoxicity call is “inactive”. For the compound `O=C(C[C@@H]1CC[C@H]2[C@@H](COC[C@@H](O)CN2C(=O)Nc2cccc(F)c2)O1)NCc1ccccc1Cl`, the cytotoxicity call is “inactive”. With `CCOc1ccc(N2C(=O)/C(=C/C=C/c3ccccc3OC)S(=O)(=O)[C@@H]2c2cccc([N+](=O)[O-])c2)cc1`, the cytotoxicity call was “inactive”. In the case of `C[C@@H]1CN([C@@H](C)CO)C(=O)CCCn2cc(nn2)CO[C@@H]1CN(C)C(=O)Nc1ccc(N2CCN(C)CC2)cc1`, the cytotoxicity call is “inactive”. Take `C[C@@H]1CN([C@H](C)CO)C(=O)c2cccc(NC(=O)c3ccc(-c4nccs4)cc3)c2O[C@H]1CN(C)C(=O)Nc1cccc2ccccc12`: the cytotoxicity call is “inactive”. As for `C[C@H]1CCCCO[C@H](CN(C)C(=O)Cc2ccccc2)[C@@H](C)CN([C@@H](C)CO)C(=O)c2cc(NC(=O)C3CCCCC3)ccc2O1`, the entry is “inactive”. The same measure for `COc1ccc(S(=O)(=O)Nc2ccc3c(c2)C(=O)N([C@@H](C)CO)C[C@H](C)[C@@H](CN(C)Cc2ccccc2)OCCCC[C@@H](C)O3)cc1`: “inactive”; for `CNC[C@@H]1OCCCC[C@@H](C)Oc2ccc(NC(=O)Nc3ccc(C(F)(F)F)cc3)cc2C(=O)N([C@H](C)CO)C[C@@H]1C`: “inactive”.
